# The list shows a part of the results.
# Test system: PfHDP1 homeodomain (GST-tagged)
# Assay: gcPBM binding intensity (ln(normalized median fluorescence intensity)); higher = stronger DNA binding
# How it was run: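 GST-tagged P. falciparum DNA-binding domains, expressed in E. coli (about 25 μg on average), were applied for 1 h to an Agilent 4 × 180k array of primer-extended double-stranded 36-bp intergenic genomic probes plus negative controls. The binding buffer was 1× PBS with 1% milk, 0.2 mg/ml BSA, 0.5% salmon testes DNA and 0.03% Triton X-100. Bound protein was detected with Alexa488 anti-GST antibody and scanned at 488 nm. Binding intensity is the highest Masliner-normalised natural-log median intensity across replicate spots of either probe orientation.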
row,Sequence,gcPBM binding intensity (ln)
1,TATGCTATTATATATGTACACACCAATTTATTTATA [CACACA_site3918],6.93
2,TGATAAATATTATGTTGTACTTTCTGCCCTTCACAT [XGTACX_site5168],6.75
3,CACAATGGTTTATATACACACTGTTGCAAATTCTTC [CACACA_site5659],9.32
4,AATATAAACACAAACACACACATATAGATTTATATA [CACACA_site6263],6.75
5,AATATATAAATTGACACACACATATATACCTATATA [CACACA_site4803],6.59
6,GAGAGAGAAATAAAAAGTACATACATATATATACAT [XGTACX_site2267],6.46
7,TGGAGATTTTTAAAGACACACAGGTAAGAATAATAA [CACACA_site1582],6.57
8,AAAAAAAACAGACACATACACACAAAAATGTTATAA [CACACA_site82],6.37
9,ACCATTTTTATGTATAAACACACGTACCCGCACTAA [CACACA_site1604],6.6
10,TTATACCTATATTTAACACACATTTGATAAAGTGCC [CACACA_site6732],6.36
11,TTGTAGGTAAATATGTGTACGCATTATTATTCTTAA [XGTACX_site216],6.39
12,AAAAAATTTGTTTATTGTACAGAAAGAATTATTATA [XGTACX_site6549],6.52
13,AACCAATATGTGTATACACACATAAATATAAATATA [CACACA_site7729],7.09
14,AAAAAAAAAAAAAGGTGTACATAAGTAAATTCATAT [XGTACX_site4206],6.36
15,CTTTTCTTTTTTTTTTGTACATAAAATTATTCCTTA [XGTACX_site3924],6.47
16,AATATAGTCACACATACACACATATAGATTTATATA [CACACA_site7223],6.87
17,TTTTGTTGCTCTTTTTTTTTTTTTTTTAACTGTATG [CACACA_negctrl_site1072],7.15
18,AATATATAAATTAATACATGCACATATAGAAAGGGA [TGCATGCA_site472],10
19,CTTTTTACTTAATACACACACACACTAGAAAAAAAA [CACACA_site4680],7.16

row,Sequence,gcPBM binding intensity (ln)
1,TATACATATAAATTGTGTACACATATATATATATTT [XGTACX_site7875],7.06
2,TAAAAGGAAAAAAAAGCACACACAATATTACTTGAA [CACACA_site8831],6.79
3,TATCAAAATTAGTATACACACAAAATTATTCAAATA [CACACA_site2232],6.18
4,TTTGCTTCCAAAAGTCGTACAAAAAATATTAAATAT [XGTACX_site4171],6.47
5,AAAAGATTGCTCCGCATGCACCTCCAAAAGTTCCTT [GTGCAC_site9993],9.94
6,TACAAAAGCGATACGGCACACATTTCCTGTTTAAAT [CACACA_site2746],6.57
7,ATAATAAGCAAACACACACACACAAAAAAAAAAAAA [CACACA_site720],6.51
8,TTATTTTGTTTTAAAAGTACACACTTTTAATTAGAT [XGTACX_site2271],6.4
9,TATATAAACACGTACACACACATATAGGTATTTATA [CACACA_site7615],6.8
10,ACAGAATACATATACACACATACAAAAAAGTGCATA [CACACA_site987],7.81
11,TCATACTGTATATTTTGTACTTATATATATATTATA [XGTACX_site6136],7.04
12,CATTATGTTGTAAATGCACACATACATATACACAGT [CACACA_site8990],9.81
13,AATATTATGTATAACCGTACATTATATATATAATAA [XGTACX_site1594],6.31
14,ATTGTGTTAATGAAATGTACATTTTCTCTACGTTAA [XGTACX_site1322],6.76
15,TCCTACATATTATAGTGTACATTTTCATGTTCATAT [XGTACX_site4308],6.65
16,AAGTATTATATATTTTGTACATATATAAAACCACAA [XGTACX_site5508],6.56
17,TTAAACTTGTTTTGGATGCACTATATAATTCATTTT [GTGCAC_site9549],7.2
18,GTGTAAAGGTATTATTGTATTATTCAAAATAAAAAA [CACACA_negctrl_site637],6.47
19,ATTAAAATAATTTAATTTCTTAGACACAATTTGTAA [GTGCAC_negctrl_site331],5.99

row,Sequence,gcPBM binding intensity (ln)
1,TCTTAATTTGTTATATGTACATAATATAATTGTATA [XGTACX_site5184],6.47
2,TATTTTGTAATAATTACACACGGAATTATAACAGAA [CACACA_site2355],6.58
3,ATATATATATTTATATTTATATGTAAATATCAACGT [TGCATGCA_negctrl_site32],8.19
4,TTATATTAATAAAAAGAAAATCATTTTTTCTTTTAT [CACACA_negctrl_site1595],5.83
5,TATTTATATTTATATACACACATACATATTTATATT [CACACA_site6535],6.5
6,AATATGTCTATATTTTTTATATGGAAATATTATAAA [GTGCAC_negctrl_site700],6.04
7,CAAAAGGATAGGCACACACACACACCCATATATATA [CACACA_site2199],6.87
8,TTTTTTTTTTTTTTTTTTTTTTTATCTATTATTTAT [XGTACX_negctrl_site496],6.22
9,AAACAAAAAATTTAAAGTACAAAAATTATGATTGTT [XGTACX_site465],6.32
10,AAAAAATTAATATTGACACACATTTTTAAGAATAAT [CACACA_site239],6.25
11,TATATTAATAATAAGTGTACATATATATATATTTTT [XGTACX_site288],6.57
12,AATATATAGAGAGATATGCACACTGTATGAATGCAC [CACACA_site2677],8.81
13,AATGAGAAATATAATTGTACATATATTTATTTTCAT [XGTACX_site3669],6.23
14,ATTTGTAAAAAATTCATACACACGTCTTATTTTTAA [CACACA_site1390],6.32
15,TATTTTTTCTTTCATTGTACTTTTTTTTTGTTTTGT [XGTACX_site4081],6.8
16,AATACTATTATTATTGCACACTTATTATCCCTCGGA [CACACA_site4262],10.2
17,TATAAAAATATTTCTACACACATTAATATATATATA [CACACA_site1150],8.41
18,TTTTTATTTTTTGTCTGTACATATATAAATTTATTA [XGTACX_site1525],6.94

# Source: the supplement of paper PMC11417369
